The values that follow come from PubChem BioAssay AID1508642 (National Center for Advancing Translational Sciences (NCATS), 2021).

Screen size: about 43,000 compounds; about 200 (0.47%) were called active. About 12% were inconclusive and are not listed. Calls come from the whole dose curve; as a rule, active = well fitted cell-killing curve with a large enough effect; inconclusive = small, poorly fitted or top-dose-only effect, or effect the other way; inactive = flat fitted curve, though single readings scatter. The list shows a part of the results.
% is set by controls: 0 for no effect and ±100 for the full control effect.

A short description of the assay: Cell viability qHTS assay in S16 Pmp22-F2sN cells. Note: nearly all actives have a fitted effect of over 65% in size. The following applies: S16 Pmp22-F2sN Schwann cells (luciferase reporters placed in the Pmp22 gene) viability, CellTiter-Glo, 24 h; series mostly up to 57.5 µM; activity change, negative = cytotoxicity: at the top concentration. An outline of the steps: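 CellTiter-Glo counter-screen, qHTS, 1536-well. Cells: S16(c9) Pmp22-F2sN, 500-1,000/well in DMEM + 10% FBS. Cpd 23 nL pin transfer, 24 h, 37C/5% CO2. Read: luminescence, CCD imager.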
For `Cc1cccc(-n2c(=O)c3c4c(sc3n3cnnc23)CCCC4)c1`, the “activity change, negative = cytotoxicity” value is inactive: 2.26%.

With `Cc1cc(C)cc(NC2=CC(c3cccc(F)c3)N(c3cc(C)cc(C)c3)C2=O)c1` (centres undefined), the “activity change, negative = cytotoxicity” value was inactive: 9.66%.

In the case of `Cc1cc(=O)n(Cc2cccc(Cl)c2)c2c1c(C)nn2-c1ccccc1`, the “activity change, negative = cytotoxicity” value is inactive: -0.0399%.

In the case of `COc1ccc(CNC(=O)CN(c2ccccc2)S(=O)(=O)N(C)C)cc1`, the “activity change, negative = cytotoxicity” value was inactive: -2.2%.

`Cc1ccc(CNC(=O)c2ccc(Cn3c(SCc4ccccc4F)nc4cccnc43)cc2)cc1`: the “activity change, negative = cytotoxicity” value was inactive: 1.85%.

In the case of `CN(C)S(=O)(=O)c1ccc(C(=O)N2CC(=O)Nc3ccc(Br)cc3C2c2ccc(F)cc2)cc1` (centres undefined), the “activity change, negative = cytotoxicity” value is inactive: -12%.

On to `CC1CCN(C(=O)Cn2c(=O)oc3cc(S(=O)(=O)N4CCCCC4)ccc32)CC1`, for which the “activity change, negative = cytotoxicity” value is inactive: 0.138%.

Consider `CCOC(=O)Cn1cnc2onc(-c3ccc(F)cc3)c2c1=O`, for which the “activity change, negative = cytotoxicity” value is inactive: -3.98%.

Turning to `COc1ccc(C(CNC(=O)COc2ccc(Cl)c(C)c2)N2CCOCC2)cc1` (centres undefined), the “activity change, negative = cytotoxicity” value is inactive: 2.76%.

With `CCCCSc1ncnc2c1c(-c1ccccc1)cn2-c1cccc(F)c1`, the “activity change, negative = cytotoxicity” value is inactive: 3.19%.

`CCN(CC)S(=O)(=O)c1nnc(NC(=O)COc2ccc(Cl)cc2)s1`: the “activity change, negative = cytotoxicity” value was inactive: 1%.

As for `Cc1nnc(SCC(=O)Nc2ccc(Br)cc2)[nH]c1=O`, the “activity change, negative = cytotoxicity” value is inactive: 5.42%.

Turning to `O=c1c(=O)n(-c2cccc(Cl)c2)ccn1Cc1cccc(F)c1`, the “activity change, negative = cytotoxicity” value was inactive: -7.16%.

As for `CC(=O)N1CCc2cc(S(=O)(=O)NC(CC(C)C)C(=O)NCc3ccccc3)ccc21` (centres undefined), the “activity change, negative = cytotoxicity” value is inactive: -0.289%.

Regarding `COc1cccc2c1cc1c(=O)n(CC(=O)NC3CC3)nc(C)n12`, the “activity change, negative = cytotoxicity” value was inactive: 9.21%.

For the compound `CCOc1ccc(NC(=O)C(NC(=O)C2CCC(C)CC2)C(C)C)cc1` (centres undefined), the “activity change, negative = cytotoxicity” value is inactive: 3.1%.

Take `CCOC(=O)c1cc(-c2ccccc2)n(CC(=O)N(C)c2ccc(OC)cc2)c1C`: the “activity change, negative = cytotoxicity” value was inactive: -13.5%.

On to `CCCCC(CC)CNC(=O)CCCn1c(=O)[nH]c2ccsc2c1=O` (centres undefined), for which the “activity change, negative = cytotoxicity” value was inactive: 4.22%.

As for `COc1ccc(C)cc1Nc1nc(-c2cccc(Cl)c2)c2c(n1)-c1ccccc1OC2`, the “activity change, negative = cytotoxicity” value is inactive: 6.24%.

`COc1cc(-c2nc(Cn3nnc(C(=O)Nc4cc(C)cc(C)c4)c3C)c(C)o2)cc(OC)c1OC`: the “activity change, negative = cytotoxicity” value is inactive: 5.46%.

In the case of `Cc1ccc(-c2nc(N3CCN(c4ccccc4Cl)CC3)c3ccccc3n2)cc1`, the “activity change, negative = cytotoxicity” value was inactive: 7.26%.

For `CCN(CCCNC(=O)c1cc2cc3ccc(C)cc3nc2s1)c1ccccc1`, the “activity change, negative = cytotoxicity” value is inactive: -3.7%.

Regarding `CCCN(c1ccccc1CC)S(=O)(=O)c1ccc2c(c1)CC(C)N2C(=O)C1CC1` (centres undefined), the “activity change, negative = cytotoxicity” value is inactive: -23.3%.

Take `CCS(=O)(=O)N1CC(=O)N(c2cccc(Cl)c2C)C(C)(C(=O)NC2CCCCC2)C1` (centres undefined): the “activity change, negative = cytotoxicity” value is inactive: -0.22%.

Consider `Cc1ccc(NC(=O)c2oc3ccc(S(=O)(=O)N(C)C4CCCCC4)cc3c2C)cc1Cl`, for which the “activity change, negative = cytotoxicity” value was inactive: 13%.

On to `COc1ccc(-c2nc(CSCC(=O)N3CCN(c4ccc(OC)cc4)CC3)c(C)o2)cc1`, for which the “activity change, negative = cytotoxicity” value was inactive: -23.3%.

Consider `O=S(=O)(c1cccc(F)c1)N1CCC(c2nc3ccccc3s2)CC1`, for which the “activity change, negative = cytotoxicity” value was inactive: 1.57%.

Regarding `COCCNC(=O)CCCN1C(=O)c2ccccc2Sc2ncccc21`, the “activity change, negative = cytotoxicity” value is inactive: 8.26%.

On to `Cc1ccc(Cn2ccnc2SCC(=O)NCc2ccc(F)cc2)cc1`, for which the “activity change, negative = cytotoxicity” value is inactive: -19%.

`COc1ccc(NC(=O)CSc2nc3ccccc3n2CC(=O)N(C)c2ccc(F)cc2)cc1`: the “activity change, negative = cytotoxicity” value was inactive: -9.01%.

For the compound `COc1ccc(OCCCCn2c(C3CC(=O)N(c4cccc(Cl)c4)C3)nc3ccccc32)cc1` (centres undefined), the “activity change, negative = cytotoxicity” value was inactive: -23%.

With `Cc1cc(C)n(CCc2nc3c4ccccc4nc(N4CCN(c5ccccc5F)CC4)n3n2)n1`, the “activity change, negative = cytotoxicity” value is inactive: 2.74%.

Consider `C#CC(C)(CC)NC(=O)c1cnn2c(C(F)F)cc(-c3ccccc3OC)nc12` (centres undefined), for which the “activity change, negative = cytotoxicity” value is inactive: -0.0477%.

For `Cc1ccc(NC(=O)/C(C#N)=C/c2ccc(C)o2)cc1`, the “activity change, negative = cytotoxicity” value was inactive: -1.91%.

As for `CC(C)CCNC(=O)c1ccc2c(c1)NC(=O)C(CS(=O)(=O)Cc1cccc(Br)c1)N2` (centres undefined), the “activity change, negative = cytotoxicity” value was inactive: -0.169%.

Turning to `CCOc1ccc(NC(=O)c2cn(C)c(=O)c3cc(OC)c(OC)cc23)cc1`, the “activity change, negative = cytotoxicity” value is inactive: -0.175%.

As to `CN1C(=O)C2(SCC(=O)N2c2cccc(C(F)(F)F)c2)c2ccccc21` (centres undefined), the “activity change, negative = cytotoxicity” value is inactive: 15.9%.

As for `CCOC(=O)C1CCC(CN(Cc2ccc(Cl)cc2)S(=O)(=O)c2ccc(Br)cc2)CC1` (centres undefined), the “activity change, negative = cytotoxicity” value is inactive: -2.24%.

As to `COc1ccc(-c2onc(C)c2C)cc1S(=O)(=O)N(C)Cc1ccco1`, the “activity change, negative = cytotoxicity” value was inactive: -7.75%.

Regarding `CCOC(=O)C1CCN(CC(=O)N2CCCc3c2c(=O)oc2ccc(OCc4ccccc4)cc32)CC1`, the “activity change, negative = cytotoxicity” value is inactive: 17.9%.

`CCS(=O)(=O)N1CCc2cc(C(=O)NCCc3ccccc3)ccc21`: the “activity change, negative = cytotoxicity” value was inactive: 11.3%.

For the compound `CCCN1CCN(CCNC(=O)Nc2ccc(OC)c(OC)c2)CC1`, the “activity change, negative = cytotoxicity” value was inactive: 21.4%.

With `CCc1ccc(NC(=O)CN2C(=O)C3(SCC(=O)N3c3ccccc3)c3ccccc32)cc1` (centres undefined), the “activity change, negative = cytotoxicity” value was inactive: -16.1%.

Take `COc1ccc(NC(=O)c2sc3nc(C)c(C(=O)Nc4ccc(C)cc4C)c(-c4ccc(C)o4)c3c2N)cc1`: the “activity change, negative = cytotoxicity” value was inactive: 2.29%.

With `Cc1ccc(Nc2nc(C)cc(C)n2)c(C(=O)O)c1`, the “activity change, negative = cytotoxicity” value was inactive: 8.03%.

As to `COc1ccc(NC(=O)Cn2nc(-c3ccncc3)ccc2=O)cc1Cl`, the “activity change, negative = cytotoxicity” value was inactive: -7.08%.

In the case of `CC1(C)CC(=O)c2cc(-c3nc(-c4ccc(Cl)cc4)cs3)c(=O)n(-c3ccc(Cl)cc3)c2C1`, the “activity change, negative = cytotoxicity” value was inactive: -1.06%.

Turning to `CN(C)CCNC(=O)CCCN1C(=O)c2cccnc2Oc2ccc(Cl)cc21`, the “activity change, negative = cytotoxicity” value was inactive: 22.8%.

For `O=C1CC(c2nc3ccccc3n2CCCOc2ccccc2)CN1c1ccc(F)cc1` (centres undefined), the “activity change, negative = cytotoxicity” value was inactive: -7.25%.
